Results are given in words; binding and its absence hold for the method and conditions named. For some assays here: In cells and extracts the contact can be indirect. Some results given as binding are weak or reduced against the parent protein; the word gives no strength. Sequences can lack the tags named with a protein.
T1: DivIVA-FLAG (wild-type DivIVA with a C-terminally appended FLAG tag) (Bacillus subtilis) (UniProt P71021)
T1 sequence: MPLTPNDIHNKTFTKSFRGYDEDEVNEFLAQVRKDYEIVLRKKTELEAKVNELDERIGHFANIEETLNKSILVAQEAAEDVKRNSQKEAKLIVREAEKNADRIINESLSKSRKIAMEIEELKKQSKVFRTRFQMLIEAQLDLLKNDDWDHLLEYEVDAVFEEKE

Amino acid sequences for entries named in this document (tags omitted).
UniProt P06224: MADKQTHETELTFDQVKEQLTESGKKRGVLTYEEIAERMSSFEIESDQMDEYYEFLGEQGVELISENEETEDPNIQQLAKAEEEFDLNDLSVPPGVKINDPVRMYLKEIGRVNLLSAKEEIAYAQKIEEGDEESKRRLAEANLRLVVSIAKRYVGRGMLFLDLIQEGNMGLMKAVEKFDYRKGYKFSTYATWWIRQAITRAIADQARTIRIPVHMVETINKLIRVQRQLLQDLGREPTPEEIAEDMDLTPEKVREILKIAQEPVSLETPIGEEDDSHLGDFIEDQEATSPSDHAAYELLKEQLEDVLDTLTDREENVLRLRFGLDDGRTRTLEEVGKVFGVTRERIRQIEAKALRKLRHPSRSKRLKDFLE

T2: DivIVA^R94N-FLAG (Bacillus subtilis) (UniProt P71021)
T2 sequence: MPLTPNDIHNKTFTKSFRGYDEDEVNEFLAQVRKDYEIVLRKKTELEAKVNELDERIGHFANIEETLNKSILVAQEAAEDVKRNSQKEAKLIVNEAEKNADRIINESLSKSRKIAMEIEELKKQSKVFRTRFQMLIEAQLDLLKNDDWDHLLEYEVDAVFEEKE

T3: DivIVA (wild type) fused to an adenylate cyclase subunit (bacterial two-hybrid fusion) (Bacillus subtilis) (UniProt P71021)
T3 sequence: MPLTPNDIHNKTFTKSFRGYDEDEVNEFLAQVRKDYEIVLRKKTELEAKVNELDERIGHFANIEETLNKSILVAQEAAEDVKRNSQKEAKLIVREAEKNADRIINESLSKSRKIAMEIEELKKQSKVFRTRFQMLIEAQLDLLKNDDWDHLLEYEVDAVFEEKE

T4: DivIVA R94N fused to an adenylate cyclase subunit (bacterial two-hybrid fusion) (Bacillus subtilis) (UniProt P71021)
T4 sequence: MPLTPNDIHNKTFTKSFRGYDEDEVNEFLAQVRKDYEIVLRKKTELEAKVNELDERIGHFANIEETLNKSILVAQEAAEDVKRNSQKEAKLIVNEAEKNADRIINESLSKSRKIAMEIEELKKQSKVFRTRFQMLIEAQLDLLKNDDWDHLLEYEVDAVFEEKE


Key:
[1] = molecular target: T1, DivIVA-FLAG (wild-type DivIVA with a C-terminally appended FLAG tag) (Bacillus subtilis); test: co-IP
[2] = molecular target: T2, DivIVA^R94N-FLAG (Bacillus subtilis); test: co-IP
[3] = molecular target: T3, DivIVA (wild type) fused to an adenylate cyclase subunit (bacterial two-hybrid fusion) (Bacillus subtilis); test: two-hybrid
[4] = molecular target: T4, DivIVA R94N fused to an adenylate cyclase subunit (bacterial two-hybrid fusion) (Bacillus subtilis); test: two-hybrid

binding [1]	binding [2]	binding [3]	binding [4]	Molecule
no binding	no binding	–	–	SigA (from UniProt P06224 1-371)
–	–	binds	–	DivIVA (wild type) fused to an adenylate cyclase subunit (bacterial two-hybrid fusion) (protein, UniProt P71021 1-164) MPLTPNDIHNKTFTKSFRGYDEDEVNEFLAQVRKDYEIVLRKKTELEAKVNELDERIGHFANIEETLNKSILVAQEAAEDVKRNSQKEAKLIVREAEKNADRIINESLSKSRKIAMEIEELKKQSKVFRTRFQMLIEAQLDLLKNDDWDHLLEYEVDAVFEEKE
–	–	binds	–	DivIVA R94N fused to an adenylate cyclase subunit (bacterial two-hybrid fusion) (protein, UniProt P71021 1-164) MPLTPNDIHNKTFTKSFRGYDEDEVNEFLAQVRKDYEIVLRKKTELEAKVNELDERIGHFANIEETLNKSILVAQEAAEDVKRNSQKEAKLIVNEAEKNADRIINESLSKSRKIAMEIEELKKQSKVFRTRFQMLIEAQLDLLKNDDWDHLLEYEVDAVFEEKE
–	–	binds	binds	SpoIIE fused to an adenylate cyclase subunit (bacterial two-hybrid fusion) (enzyme, UniProt P37475 1-827) MEKAERRVNGPMAGQALEKLQSFFNRGTKLVTHHLHSLFFYKGFIYVVIGFLLGRAFILSEVLPFALPFFGAMLLIRRDKAFYAVLAVLAGALTISPKHSLLILAALLAFFVFSKVAAFITDDRVKALPIVVFFSMAAARAGFVYAQNGVFTTYDYVMAIVEAGLSFILTLIFLQSLPIFTVKKVKQSLKIEEIICFMILIASVLTGLAGLSYQGMQAEHILARYVVLSFSFIGGASIGCTVGVVTGLILGLANIGNLYQMSLLAFSGLLGGLLKEGKKAGAAIGLIVGSLLISLYGEGSAGLMTTLYESLIAVCLFLLTPQSITRKVARYIPGTVEHLQEQQQYARKIRDVTAQKVDQFSNVFHALSESFATFYQASDEQTDDSEVDLFLSKITEHSCQTCYKKNRCWVQNFDKTYDLMKQVMLETEEKEYASNRRLKKEFQQYCSKSKQVEELIEDELAHHHAHLTLKKKVQDSRRLVAEQLLGVSEVMADFSREIKREREQHFLQEEQIIEALQHFGIEIQHVEIYSLEQGNIDIEMTIPFSGHGESEKIIAPMLSDILEEQILVKAEQHSPHPNGYSHVAFGSTKSYRVSTGAAHAAKGGGLVSGDSYSMMELGARKYAAAISDGMGNGARAHFESNETIKLLEKILESGIDEKIAIKTINSILSLRTTDEIYSTLDLSIIDLQDASCKFLKVGSTPSFIKRGDQVMKVQASNLPIGIINEFDVEVVSEQLKAGDLLIMMSDGIFEGPKHVENHDLWMKRKMKGLKTNDPQEIADLLMEEVIRTRSGQIEDDMTVVVVRIDHNTPKWASIPVPAIFQNKQEIS
binds	binds	–	–	SpoIIE-GFP (enzyme, UniProt P37475 1-827) MEKAERRVNGPMAGQALEKLQSFFNRGTKLVTHHLHSLFFYKGFIYVVIGFLLGRAFILSEVLPFALPFFGAMLLIRRDKAFYAVLAVLAGALTISPKHSLLILAALLAFFVFSKVAAFITDDRVKALPIVVFFSMAAARAGFVYAQNGVFTTYDYVMAIVEAGLSFILTLIFLQSLPIFTVKKVKQSLKIEEIICFMILIASVLTGLAGLSYQGMQAEHILARYVVLSFSFIGGASIGCTVGVVTGLILGLANIGNLYQMSLLAFSGLLGGLLKEGKKAGAAIGLIVGSLLISLYGEGSAGLMTTLYESLIAVCLFLLTPQSITRKVARYIPGTVEHLQEQQQYARKIRDVTAQKVDQFSNVFHALSESFATFYQASDEQTDDSEVDLFLSKITEHSCQTCYKKNRCWVQNFDKTYDLMKQVMLETEEKEYASNRRLKKEFQQYCSKSKQVEELIEDELAHHHAHLTLKKKVQDSRRLVAEQLLGVSEVMADFSREIKREREQHFLQEEQIIEALQHFGIEIQHVEIYSLEQGNIDIEMTIPFSGHGESEKIIAPMLSDILEEQILVKAEQHSPHPNGYSHVAFGSTKSYRVSTGAAHAAKGGGLVSGDSYSMMELGARKYAAAISDGMGNGARAHFESNETIKLLEKILESGIDEKIAIKTINSILSLRTTDEIYSTLDLSIIDLQDASCKFLKVGSTPSFIKRGDQVMKVQASNLPIGIINEFDVEVVSEQLKAGDLLIMMSDGIFEGPKHVENHDLWMKRKMKGLKTNDPQEIADLLMEEVIRTRSGQIEDDMTVVVVRIDHNTPKWASIPVPAIFQNKQEIS

Source: PMC10990147
